# Measured values as given in paper PMC9911399, “Two distinct binding modes provide the RNA-binding protein RbFox with extraordinary sequence specificity”.
# Where a chain is given by its changes, count along the chain named. Some of the results follow.
# T1: RBFOX1 RRM RbFoxmut (Fox-RRM*) (Homo sapiens, UniProt Q9NWB1 109-208, R118D;E147R;N151S;E152T)
# T1 sequence: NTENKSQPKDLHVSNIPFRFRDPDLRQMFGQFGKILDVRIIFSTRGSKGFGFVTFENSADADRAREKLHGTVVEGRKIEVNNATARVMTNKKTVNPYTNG
# B1: AAACAAA (DNA:RNA)
# RNA: GGGAGACCGGAAUUCAGAUUGUCCAAACAAAUUAAAUCCCGUCGUAGCCACCA
# DNA 1: CAATCTGAATTCCGGTCTCCC
# DNA 2: TGGTGGCTACGACGGGATT
# B2: CAUAGUU (DNA:RNA)
# RNA: B1 RNA with A25C, A27U, C28A, A29G, A30U, A31U
# DNA 1: CAATCTGAATTCCGGTCTCCC
# DNA 2: TGGTGGCTACGACGGGATT
# B3: UUCAAUC (DNA:RNA)
# RNA: B1 RNA with A25U, A26U, A27C, C28A, A30U, A31C
# DNA 1: CAATCTGAATTCCGGTCTCCC
# DNA 2: TGGTGGCTACGACGGGATT
# B4: GGUGGUU (DNA:RNA)
# RNA: GGGAGACCGGAAUUCAGAUUGUCCGGUGGUUUUAAAUCCCGUCGUAGCCACCA
# DNA 1: CAATCTGAATTCCGGTCTCCC
# DNA 2: TGGTGGCTACGACGGGATT
# B5: CGAAGGU (DNA:RNA)
# RNA: B4 RNA with G25C, U27A, G28A, U30G
# DNA 1: CAATCTGAATTCCGGTCTCCC
# DNA 2: TGGTGGCTACGACGGGATT
# B6: ACAGAGA (DNA:RNA)
# RNA: B1 RNA with A26C, C28G, A30G
# DNA 1: CAATCTGAATTCCGGTCTCCC
# DNA 2: TGGTGGCTACGACGGGATT
# B7: GCUGUUU (DNA:RNA)
# RNA: B4 RNA with G26C, G29U
# DNA 1: CAATCTGAATTCCGGTCTCCC
# DNA 2: TGGTGGCTACGACGGGATT
# B8: AAACAAC (DNA:RNA)
# RNA: B1 RNA with A31C
# DNA 1: CAATCTGAATTCCGGTCTCCC
# DNA 2: TGGTGGCTACGACGGGATT
# B9: GGUUUAU (DNA:RNA)
# RNA: B4 RNA with G28U, G29U, U30A
# DNA 1: CAATCTGAATTCCGGTCTCCC
# DNA 2: TGGTGGCTACGACGGGATT
# B10: ACUGGCC (DNA:RNA)
# RNA: B4 RNA with G25A, G26C, U30C, U31C
# DNA 1: CAATCTGAATTCCGGTCTCCC
# DNA 2: TGGTGGCTACGACGGGATT
# B11: UGUUCGC (DNA:RNA)
# RNA: B4 RNA with G25U, G28U, G29C, U30G, U31C
# DNA 1: CAATCTGAATTCCGGTCTCCC
# DNA 2: TGGTGGCTACGACGGGATT
# B12: UAGUUGU (DNA:RNA)
# RNA: B1 RNA with A25U, A27G, C28U, A29U, A30G, A31U
# DNA 1: CAATCTGAATTCCGGTCTCCC
# DNA 2: TGGTGGCTACGACGGGATT
# B13: GUGCAAU (DNA:RNA)
# RNA: B1 RNA with A25G, A26U, A27G, A31U
# DNA 1: CAATCTGAATTCCGGTCTCCC
# DNA 2: TGGTGGCTACGACGGGATT
# B14: CCAGUGG (DNA:RNA)
# RNA: B1 RNA with A25C, A26C, C28G, A29U, A30G, A31G
# DNA 1: CAATCTGAATTCCGGTCTCCC
# DNA 2: TGGTGGCTACGACGGGATT
# B15: AUGGUAG (DNA:RNA)
# RNA: B1 RNA with A26U, A27G, C28G, A29U, A31G
# DNA 1: CAATCTGAATTCCGGTCTCCC
# DNA 2: TGGTGGCTACGACGGGATT
# B16: AGACCUA (DNA:RNA)
# RNA: B1 RNA with A26G, A29C, A30U
# DNA 1: CAATCTGAATTCCGGTCTCCC
# DNA 2: TGGTGGCTACGACGGGATT
# B17: GGGCCGG (DNA:RNA)
# RNA: B4 RNA with U27G, G28C, G29C, U30G, U31G
# DNA 1: CAATCTGAATTCCGGTCTCCC
# DNA 2: TGGTGGCTACGACGGGATT
# B18: AAUUCAC (DNA:RNA)
# RNA: B1 RNA with A27U, C28U, A29C, A31C
# DNA 1: CAATCTGAATTCCGGTCTCCC
# DNA 2: TGGTGGCTACGACGGGATT
# B19: GUGGAAG (DNA:RNA)
# RNA: B1 RNA with A25G, A26U, A27G, C28G, A31G
# DNA 1: CAATCTGAATTCCGGTCTCCC
# DNA 2: TGGTGGCTACGACGGGATT
# B20: GAACUGA (DNA:RNA)
# RNA: B1 RNA with A25G, A29U, A30G
# DNA 1: CAATCTGAATTCCGGTCTCCC
# DNA 2: TGGTGGCTACGACGGGATT
# B21: UAUUAUU (DNA:RNA)
# RNA: B4 RNA with G25U, G26A, G28U, G29A
# DNA 1: CAATCTGAATTCCGGTCTCCC
# DNA 2: TGGTGGCTACGACGGGATT
# B22: CCGAACC (DNA:RNA)
# RNA: B1 RNA with A25C, A26C, A27G, C28A, A30C, A31C
# DNA 1: CAATCTGAATTCCGGTCTCCC
# DNA 2: TGGTGGCTACGACGGGATT
# B23: UGCGCUA (DNA:RNA)
# RNA: B4 RNA with G25U, U27C, G29C, U31A
# DNA 1: CAATCTGAATTCCGGTCTCCC
# DNA 2: TGGTGGCTACGACGGGATT
# B24: AAAUCGC (DNA:RNA)
# RNA: B1 RNA with C28U, A29C, A30G, A31C
# DNA 1: CAATCTGAATTCCGGTCTCCC
# DNA 2: TGGTGGCTACGACGGGATT
# B25: CCCCUAC (DNA:RNA)
# RNA: B1 RNA with A25C, A26C, A27C, A29U, A31C
# DNA 1: CAATCTGAATTCCGGTCTCCC
# DNA 2: TGGTGGCTACGACGGGATT
# B26: CAUCGAA (DNA:RNA)
# RNA: B1 RNA with A25C, A27U, A29G
# DNA 1: CAATCTGAATTCCGGTCTCCC
# DNA 2: TGGTGGCTACGACGGGATT
# B27: CGAAUGU (DNA:RNA)
# RNA: B4 RNA with G25C, U27A, G28A, G29U, U30G
# DNA 1: CAATCTGAATTCCGGTCTCCC
# DNA 2: TGGTGGCTACGACGGGATT
# B28: CCUGCUU (DNA:RNA)
# RNA: B4 RNA with G25C, G26C, G29C
# DNA 1: CAATCTGAATTCCGGTCTCCC
# DNA 2: TGGTGGCTACGACGGGATT
# B29: UUGGUAC (DNA:RNA)
# RNA: B1 RNA with A25U, A26U, A27G, C28G, A29U, A31C
# DNA 1: CAATCTGAATTCCGGTCTCCC
# DNA 2: TGGTGGCTACGACGGGATT
# B30: CGUGCCG (DNA:RNA)
# RNA: B4 RNA with G25C, G29C, U30C, U31G
# DNA 1: CAATCTGAATTCCGGTCTCCC
# DNA 2: TGGTGGCTACGACGGGATT
# B31: CCAGAGC (DNA:RNA)
# RNA: B1 RNA with A25C, A26C, C28G, A30G, A31C
# DNA 1: CAATCTGAATTCCGGTCTCCC
# DNA 2: TGGTGGCTACGACGGGATT
# Target: T1, RBFOX1 RRM RbFoxmut (Fox-RRM*)
# Assay: EMSA; HiTS-Eq, 1 nM pool, 10 min; buffer printed only for the single-RNA assays: 10 mM Tris pH 7.5, 150 mM NaCl, 3.4 mM EDTA, 0.001% NP-40, 30 C
# Conditions: tags: His6 N-terminal (pET28a); label: 5' 32P
# Procedure, shortened: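 Purified wild-type or mutant RbFox RRM at increasing concentrations was equilibrated with 1 nM of 5′-radiolabelled RNA carrying 7 randomized nucleotides for 10 min in 50 µL. Unbound RNA was separated by 8% native PAGE and sequenced. Relative association constants came from read-count changes of each RNA species compared with the control reaction, normalised to the cognate motif.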
row,Binder,binding signal
1,B1,0.0465 KA relative to UGCAUGU
2,B2,0.105 KA relative to UGCAUGU
3,B3,0.0455 KA relative to UGCAUGU
4,B4,0.106 KA relative to UGCAUGU
5,B5,0.0983 KA relative to UGCAUGU
6,B6,0.113 KA relative to UGCAUGU
7,B7,0.0916 KA relative to UGCAUGU
8,B8,0.0531 KA relative to UGCAUGU
9,B9,0.102 KA relative to UGCAUGU
10,B10,0.275 KA relative to UGCAUGU
11,B11,0.162 KA relative to UGCAUGU
12,B12,0.144 KA relative to UGCAUGU
13,B13,0.0644 KA relative to UGCAUGU
14,B14,0.0621 KA relative to UGCAUGU
15,B15,0.202 KA relative to UGCAUGU
16,B16,0.0847 KA relative to UGCAUGU

row,Binder,binding signal
1,B17,0.117 KA relative to UGCAUGU
2,B18,0.0765 KA relative to UGCAUGU
3,B19,0.128 KA relative to UGCAUGU
4,B20,0.0717 KA relative to UGCAUGU
5,B21,0.122 KA relative to UGCAUGU
6,B22,0.0994 KA relative to UGCAUGU
7,B23,0.0984 KA relative to UGCAUGU
8,B24,0.0855 KA relative to UGCAUGU
9,B25,0.0959 KA relative to UGCAUGU
10,B26,0.107 KA relative to UGCAUGU
11,B27,1.07 KA relative to UGCAUGU
12,B28,0.0863 KA relative to UGCAUGU
13,B29,0.144 KA relative to UGCAUGU
14,B30,0.102 KA relative to UGCAUGU
15,B31,0.0979 KA relative to UGCAUGU
